PubChem BioAssay AID1159614 (National Center for Advancing Translational Sciences (NCATS), 2016)
About 65 (0.1%) of roughly 45,000 compounds were called active. The call rests on the fitted dose curve; in most records, active means well fitted activation curve with a large enough effect; inconclusive means small, poorly fitted or top-dose-only effect; inactive means no such curve, though single readings can be large or run the other way. The list shows a part of the results.

Biological target: Galactocerebrosidase (Homo sapiens) (UniProt P54803)
Chain of UniProt P54803 (P54803 whole entry, looked up): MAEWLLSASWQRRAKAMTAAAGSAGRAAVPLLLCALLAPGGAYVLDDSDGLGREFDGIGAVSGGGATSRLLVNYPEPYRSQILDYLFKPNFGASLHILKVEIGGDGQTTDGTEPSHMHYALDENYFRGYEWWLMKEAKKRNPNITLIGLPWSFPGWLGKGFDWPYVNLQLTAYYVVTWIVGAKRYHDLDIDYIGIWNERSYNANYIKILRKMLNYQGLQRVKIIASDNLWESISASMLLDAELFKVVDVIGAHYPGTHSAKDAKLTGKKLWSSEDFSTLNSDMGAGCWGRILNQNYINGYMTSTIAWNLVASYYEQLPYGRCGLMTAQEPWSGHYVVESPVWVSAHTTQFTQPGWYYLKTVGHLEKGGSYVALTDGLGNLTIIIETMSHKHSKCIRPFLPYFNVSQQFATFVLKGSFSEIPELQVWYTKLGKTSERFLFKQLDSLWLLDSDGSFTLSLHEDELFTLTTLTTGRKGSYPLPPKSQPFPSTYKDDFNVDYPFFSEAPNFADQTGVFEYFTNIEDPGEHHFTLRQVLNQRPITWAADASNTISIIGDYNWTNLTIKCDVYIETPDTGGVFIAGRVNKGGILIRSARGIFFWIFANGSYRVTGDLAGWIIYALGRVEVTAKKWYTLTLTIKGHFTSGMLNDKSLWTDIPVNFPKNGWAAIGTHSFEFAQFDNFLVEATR
Test: A Novel Cell-Based Assay to Identify Small Molecules for B -Galactocerebrosidase; further: 0% is about no effect; nearly all actives have a fitted effect of over 65% in size
Settings: 145M-Twi-hGALC-G270D cells (Twitcher mouse brain line with human GALC G270D), HMU-beta-Gal fluorescence, 48 h; series mostly up to 57.5 µM; activation: at the top concentration
Summary of the method: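 Mutant human GALC (G270D), stably expressed in a Twitcher mouse brain cell line lacking endogenous GALC, is measured in live-treated cells via 6-hexadecanoylamino-4-methylumbelliferyl-β-galactoside hydrolysis (0.1 mM final, pH 5.2) with fluorescent detection.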

activation, inactive:
COC(=O)c1sccc1S(=O)(=O)N(CC(=O)NCc1ccc(C)cc1)c1ccc(C)c(C)c1 -11.5%
CCOC(=O)CSc1nc2cc(OC)c(OC)cc2c2nc(-c3ccccc3)nn12 -2.53%
CC(=O)c1c(C)oc2c1cc(NS(=O)(=O)c1c(C)cc(C)cc1C)c1ccccc12 -3.48%
CCOC(=O)C1=C(C)N=C2SCCC(=O)N2C1c1ccc(OCc2ccccc2)c(OC)c1 (configuration not stated) -10.2%
Cc1cc(NC(=O)c2cc(Cl)ccc2Cl)ccc1-c1cc2ccccc2oc1=O -15.4%
CCOc1ccc(S(=O)(=O)Nc2cccc(OC)c2)c2cccnc12 3.65%
O=C1CS(=O)(=O)C2(C(=O)N(Cc3ccccc3)c3ccccc32)N1c1ccc(F)c(Cl)c1 (configuration not stated) -24.2%
COc1ccc(NS(=O)(=O)c2ccc3[nH]c(=O)ccc3c2)cc1OC -17.7%
COc1cccc(-n2nnc(-c3nc(-c4cccs4)no3)c2N)c1 -11%
COc1cc(OC)cc(C(=O)Nc2ccc3nc4n(c(=O)c3c2)CCCCC4)c1 -0.7%
COc1ccccc1C(=O)Oc1c(Sc2ccccc2)c(C)nn1-c1ccccc1 -19.6%
COc1ccc(S(=O)(=O)N(CC(=O)Nc2ccccc2Cl)Cc2ccccc2)cc1 -35.9%
Cc1ccc(CCNC(=O)CN2C(=O)COc3ccc(S(=O)(=O)N4CCCCCC4)cc32)cc1 9.31%
Cc1ccccc1OCc1nc2ccccc2n1Cc1ccccc1Cl -9.52%
COc1ccc(C2=NS(=O)(=O)N(C)C(C(=O)N(C)Cc3ccccc3)=C2)cc1OC -8.89%
Cc1cccc(Nc2ccncc2S(=O)(=O)NC(=O)NC(C)C)c1 -13.8%
CCS(=O)(=O)N1CCc2cc(C(=O)Nc3cccc(C(C)=O)c3)ccc21 -11.7%
CCCCN(CC)C(=O)CCNS(=O)(=O)c1ccc2c(c1)c(=O)n(C)c(=O)n2C -15.9%
CCCOc1cccc(C2c3c(-c4ccccc4O)n[nH]c3C(=O)N2Cc2ccco2)c1 (configuration not stated) -16.7%
CC(C)CCn1c(Oc2ccccc2F)nc2c1c(=O)n(C)c(=O)n2C -5.47%
CC(=O)c1ccc(NC(=O)CSc2cn(CC(=O)N(C(C)C)C(C)C)c3ccccc23)cc1 -4.21%
COC(=O)c1ccc(C(=O)OC)c(NC(=O)c2cc3nc(-c4ccc(C)cc4)cc(C(F)(F)F)n3n2)c1 -39.2%
CCCn1cnc2cc(NCc3ccccc3OCC)ccc21 -21.1%
CCn1c(C(=O)NCc2ccccc2Br)cc2oc3ccccc3c21 -15.9%
CCCNC(=O)Cn1c(=O)c2cccn2c2cccnc21 7.19%
CCCNC(=O)C1Cc2cc(S(=O)(=O)N3CCCCCC3)ccc2N1C(C)=O (configuration not stated) -12.7%
COc1ccc(C(=O)NCc2ccc3c(c2)CCN3C(=O)c2ccccc2)cc1 -9.02%
COCCCNC(=O)c1sc2nc(C)c(C(=O)Nc3ccc(C)cc3C)c(-c3ccccc3Cl)c2c1N -13.2%
CCCNC(=O)CCCN1C(=O)CCn2nc(-c3cccn3C)cc21 -14.4%
CCc1ccc2oc(-c3ccc(NC(=O)c4cc5ccccc5o4)cc3)nc2c1 -13.6%
COCCNC(=O)c1nn(-c2ccc(C)cc2)c(=O)n(C)c1=O -7.92%
COc1ccc(NS(=O)(=O)c2ccc(-c3cnc(C4CC4)o3)cc2)cc1Cl -6.34%
Cc1ccc(Cl)cc1N1CCN(C(=O)c2ccc(CS(=O)c3ccccc3)o2)CC1 (configuration not stated) 1.95%
Cc1cc(C)cc(Nc2cc(C(=O)NCCCN(C)C3CCCCC3)c3ccccc3n2)c1 -19%
O=C(CCSCc1cnn(-c2ccccc2)c1-n1cccc1)NCc1ccccc1Cl -15.5%
COCCNC(=O)CCc1c(C)n(C)c2cc(-c3cc(OC)c(OC)c(OC)c3)nn2c1=O 5.6%
CC1CCN(S(=O)(=O)c2ccc3nc(NCc4ccccc4)ccc3c2)CC1 0.392%
COc1ccc(C(CNC(=O)c2oc3cc(C)c(Cl)cc3c2C)N2CCCCC2)cc1 (configuration not stated) -28.9%
COc1cccc(Nc2nc3ccccc3c3nncn23)c1 -9.99%
Cn1c(SCc2cc(=O)c3cc(Cl)ccc3[nH]2)nnc1-c1ccccc1 0.609%
Cn1c(=O)c(=O)n(C)c2cc(C(=O)NCc3ccccc3Cl)ccc21 -12.7%
O=C(Cn1nc(-c2ccc(Cl)cc2)c2ccccc2c1=O)Nc1cccc(C(F)(F)F)c1 -1.92%
COC(=O)c1scc(-c2ccc(C)cc2)c1S(=O)(=O)N1CCN(c2ccc(C)cc2C)CC1 -13.1%
CCc1cnc2c(c1SCC(=O)NCc1ccc(C)cc1)c(=O)n(C)c(=O)n2C -7.16%
Cc1ccc(CNC(=O)C2CCN(S(=O)(=O)c3ccc4nc5c(c(C(=O)O)c4c3)CC(C)CC5)CC2)cc1 (configuration not stated) -4.53%
Cc1ccccc1OCC(=O)Nc1ccc(-c2nc3cc(Cl)cc(Cl)c3o2)cc1 -9.04%
CCCSc1ncc(Cl)c(C(=O)N(Cc2ccccc2)c2ccc(OC)cc2)n1 -7.05%
COc1cccc(NC(=O)N(CCC(C)C)C2CCN(C(C)C)CC2)c1 -7.31%
Cn1ccc2c(OCC(=O)Nc3ccc(OC(F)(F)F)cc3)cccc2c1=O -26.4%
CC(=O)c1ccc(NS(=O)(=O)c2ccc(Br)s2)cc1 -10.6%
C[C@@H](N)C(=O)O -11.3%
CC(C)(C)C1CCc2c(sc(NC(=O)c3ccco3)c2C(=O)Nc2ccccc2Cl)C1 (configuration not stated) -39.7%
COc1cc2nc(SCC(=O)Nc3ccccc3C)n3nc(CCn4c(C)nc5ccccc54)nc3c2cc1OC 0.0274%
CCOc1ccc(C(=O)OCc2cc(=O)n3nc(C4CC4)sc3n2)cc1 -5.5%
CCn1cc(C(=O)N2CCN(c3cc(Cl)ccc3C)CC2)c(=O)c2cc(S(=O)(=O)N3CCCC3)ccc21 -11.2%
COc1cc(Cl)c(C)cc1NC(=O)c1cc2c(=O)oc3ccccc3c2s1 -10.9%
Cc1cc(C(=O)N2CCN(c3cccc(Cl)c3)CC2)c2c(C)nn(-c3ccccc3Cl)c2n1 -39.1%
COc1ccc(CNC(=O)C2=CC(c3ccc(OC)c(OC)c3)=NS(=O)(=O)N2C)cc1 -7.7%
CCOCCCNC(=O)c1cn(CC)c2ccc(S(=O)(=O)N3CCOCC3)cc2c1=O -13.6%
Cc1cccc2sc(N(Cc3cccnc3)C(=O)CCOc3ccccc3)nc12 -10.5%
CCOC(=O)CSc1nc2ccc(NC(=O)COc3ccc(F)cc3)cc2s1 -10%
CN(C)c1ccc(C(CNC(=O)c2ccccc2Cl)N2CCCC2)cc1 (configuration not stated) -3.93%
CCOc1ccc(NC(=O)N(Cc2cn(CC)c3ccccc23)C2CCCCCC2)cc1 -14.9%
COc1ccc(S(=O)(=O)c2c(Nc3ccc(C)cc3C)sc(C(=O)c3ccc(F)cc3)c2N)cc1 -22.9%
Cc1cc(C)c(NC(=O)C2CCN(S(=O)(=O)c3c(C)noc3/C=C/c3ccccc3F)CC2)c(C)c1 -7.83%
O=C(CSc1nc2c([nH]c3ccccc32)c(=O)n1-c1cccc(Cl)c1)c1ccccc1 -26.1%
O=C(NCc1ccccc1)C(=O)NCC(c1cccs1)S(=O)(=O)c1cccs1 (configuration not stated) -2.85%
Cc1nnsc1C(=O)Oc1ccc(Cl)cc1 -16.2%
CN1C(=O)Cc2cc(S(=O)(=O)NCc3ccc(Cl)cc3)ccc21 -6.05%
Cc1c(C(=O)OCC2CCCCC2)[nH]c2c1C(=O)CC(c1ccccc1Cl)C2 (configuration not stated) -4.74%
COc1ccc(CCNC(=O)CCc2c(C)nc3c4cccnc4nn3c2C)cc1OC -11.9%
CCCCn1cc(S(=O)(=O)c2ccc(OC)cc2)c(=O)c2cc(F)c(N3CCOCC3)cc21 -14.3%
CCc1ccc(-n2nc(C)c3c(C)cc(=O)n(CC(=O)Nc4cc(C)ccc4C)c32)cc1 1.85%
COc1ccc(NC(=O)c2ncn(-c3ccccc3)n2)cc1Cl -29.3%
COc1cccc(N2CCN(C3=NS(=O)(=O)C(c4ccc(C)cc4)=C3C)CC2)c1 -13.8%
Cc1ccc(Cn2c(=O)n(CCCCC(=O)NCc3ccc4c(c3)OCO4)c(=O)c3ccccc32)cc1 8.15%
Cc1cc(C)cc(C(=O)NCCc2csc(-c3ccc(C(F)(F)F)cc3)n2)c1 -15%
CCc1ccccc1NC(=O)CSc1ncc2c(n1)-c1cc(Cl)ccc1N(Cc1ccccc1)S2(=O)=O 1.13%
CCC(Sc1nnc2c(n1)[nH]c1ccccc12)C(=O)Nc1ccccc1OC (configuration not stated) -14.2%
CCc1ccccc1S(=O)(=O)Cc1ccc(C(=O)NCCc2ccc(C)cc2)o1 -10.4%
Cc1cc2c(cc1NS(=O)(=O)c1ccc(NC(=O)CC(C)C)cc1)n(C)c(=O)c(=O)n2C -4.32%
Cc1cc(C)c(NC(=O)Cn2c(=O)n(CC3CCCO3)c(=O)c3ccccc32)c(C)c1 (configuration not stated) -0.321%
Cn1cc(S(=O)(=O)N2CCCC2)cc1C(=O)N1CCN(c2cccc(Cl)c2)CC1 -8.75%
Cc1ccc(N2C(=O)c3n[nH]c(C)c3C2c2ccccc2Cl)cc1 (configuration not stated) 3.74%
CC(=O)Nc1c(C)nn(-c2ccccc2)c1N1CCC(C(=O)Nc2cc(F)ccc2F)CC1 -5.4%
COc1ccccc1NC(=O)N1CCN(Cc2nc3ccc(C)cc3o2)CC1 -7.76%
O=C(O)CCC(=O)O -18.8%
Cc1c2cnn(CC(=O)NC(C)C)c(=O)c2c(C)n1Cc1cccc(Cl)c1 -16.5%
CC(Oc1ccccc1)C(=O)Nc1cccc(-c2cn3cccnc3n2)c1 (configuration not stated) -15.4%
CCNC(=O)c1ccc2c(c1)sc1nc(-c3cccc(OC)c3)cn12 9.73%
Cc1ccc(NC(=O)N2CCC3(CC2)Oc2ccccc2C(=O)N3Cc2ccc(F)cc2)cc1 -10.7%
O=C(NCCc1ccccc1)c1ccc2c(c1)N(Cc1ccc(F)cc1Cl)C(=O)CS2 -4.29%
NC1=NCC2c3ccccc3Cc3ccccc3N12 (configuration not stated) -15%
CCc1ccc(OC(=O)CSc2nnc(-c3ccc(OC)c(OC)c3)o2)cc1 11.2%
COc1ccc(S(=O)(=O)c2c(C(=O)c3ccc(C)c(C)c3)cnc3ccc(C)cc23)cc1 -13.9%
Fc1ccc(-c2cc(-c3nc(-c4ccc(Cl)cc4)no3)[nH]n2)cc1 -13.8%
Cc1c(C(=O)OC2CCC(C)CC2)[nH]c2c1C(=O)CC(c1ccc(N(C)C)cc1)C2 (configuration not stated) -14.1%
